Laboratory results as given in article PMC12136788.
The list shows a part of the results.

B1: chr7:92085846:92085847:+_ENSG00000157259_ENST00000287957|hu_hu|motif|central (ssRNA)
RNA: GGGAGUUCUACAGUCCGACGAUCGGGGCUACAGGCGUGAGCCACCACACCAGGCCUGGAAACCCAGUUUUAAUUUGUGAACGGCAAAUGGUUGGCAACUGAUUCCUUAAUUGUUAUUGCAGGAGUAGGCCCAACAUGAGUCCACAACAGAGGAUUGAGCAUCA
B2: chr5:128448638:128448639:+_ENSG00000066583_ENST00000173527|hu_hu|motif|central (ssRNA)
RNA: GGGAGUUCUACAGUCCGACGAUCAGCACUCGCCUUAAUUAGAUUCUGAAUUUCCUUGAAUUUUGGAUGGUCCUUAUCAGCGGCCAGCUGAAGCAGAACAGCCUCACUCGUGGUCACUAUGAUCCCGGUUCGAGCGAGACGCUCCAACAGAGGAUUGAGCAUCA
B3: chr1:151372964:151372965:+_ENSG00000159377_ENST00000290541|hu_mus|motif|central (ssRNA)
RNA: GGGAGUUCUACAGUCCGACGAUCCUUGGAGCGGCGGCUGUACAUGGCUCUUGUCAACCAUGAAUGAAUAGCUCUAGGGCGGUAGCUGUGUCCAUCUCCCAACAGCUCUUCAUCAAUCACCAUCUGGCCGAGAACUUGUUUCAACAACAGAGGAUUGAGCAUCA
B4: chr3:119217614:119217615:+_ENSG00000113845_ENST00000264244|hu_hu|motif|central (ssRNA)
RNA: GGGAGUUCUACAGUCCGACGAUCCUCUACAGAGAAAGCUCCGCGGUGCCGGUGGCGGCACCUCCAUGGCCUUCUCUCGACCGGCGGACAAACUUGAGCGCUCAGGACUUCAAGUCCUCGCGGACGUGCCGCGGGAGAGCGUAACAACAGAGGAUUGAGCAUCA
B5: chr15:69561275:69561276:+_ENSG00000138604_ENST00000261858|hu_hu|motif|central (ssRNA)
RNA: GGGAGUUCUACAGUCCGACGAUCUUCUUUUAAGUCAUACAGCCCAAUUAAAGAAUACAUAAAGCCAUUUAAAACAAAAGAGCGGGGUGUGGUUGGAUAUUCUUCAUACCAGUCAUGUUUAUUCAUAAACACAGCUUUAACUCCCAACAGAGGAUUGAGCAUCA
B6: chr11:46405157:46405158:+_ENSG00000110492_ENST00000395566|hu_hu|hu_hu_hu_mus_False|68_78 (ssRNA)
RNA: GGGAGUUCUACAGUCCGACGAUCCCCUCCCCACUUUGGGCACUUGGUGUGGGCGUGAAGGCAGGGCAUGAUUGAUUAGAGCUGACAGGAAGACAAAAGGCACUGGUGGGUUAUAUCUUGGGCCUGUGGGAGAGGAGGGCUCCGCAACAGAGGAUUGAGCAUCA
B7: chr5:69958400:69958401:+_ENSMUSG00000029208_ENSMUST00000154728|mus_hu|motif|central (ssRNA)
RNA: GGGAGUUCUACAGUCCGACGAUCGUCAUAAAAAUCUACCACAAUUUCAUUCAAAGGAAAGAGAUAUUUAAGCAUAACUCGGUUUUGAUCAAUAAAUAUCAUAUUCUUCUGAACUGCUCUUCGAGCCUCGCAAAGCAUCAUUAUCAACAGAGGAUUGAGCAUCA
B8: 90058019_90058139_173_3pUTR_ENSMUSG00000032363_ENSMUST00000113059|mouse|control|control (ssRNA)
RNA: GGGAGUUCUACAGUCCGACGAUCGAGGACGCGGGACGCCAGAGCGCACAGGAUCAGGAGGAGACUCGGACCACGGUGCAUGGCCCGGACGGGGUGGCCGCAGGACGACCCCUGUGCACUCCUUCGUCUACGCCGUUGCGUCCCCAACAGAGGAUUGAGCAUCA
B9: chr11:23187360:23187361:+_ENSMUSG00000020290_ENSMUST00000020538|mus_hu|motif|central (ssRNA)
RNA: GGGAGUUCUACAGUCCGACGAUCGCUCACCCAACCAGAUAUUAACUUUAAAGUUUCCCUUUUUACAGUUCGCAUACUUCGGAUCAAUGGUUGCUUUGUAACCAUUUCACCAUUAGCUUGGAUAGCUGCAGAAAUAUUUUCACUCAACAGAGGAUUGAGCAUCA
B10: 76570884_76571639_1238_3pUTR_ENSG00000138757_ENST00000395719|human|control|control (ssRNA)
RNA: GGGAGUUCUACAGUCCGACGAUCGGUUUUGCAAUUAAGAUUCUCUGAACUGGUUCAGAGUCAUCAAAAACCACAAAACCAAAAUUUGGAAGCUUUCCCCCAACACCCUUGGUAUUGAUGCGAAGUUCCACAACGUUUCCAAAACAACAGAGGAUUGAGCAUCA
B11: chr7:52357369:52357370:-_ENSMUSG00000003420_ENSMUST00000003512|mus_mus|FALSE|FALSE (ssRNA)
RNA: GGGAGUUCUACAGUCCGACGAUCGUGGCCUAGCAGUCGCUCCGGACAAGAGUUUAGCAGGAACUCGCUCUCCUUCCUGGCCGCAUCAGGCUGCUUCAUCCACAGAUUAGCAACGAUUUCCGUCUCAGGCCACUCCCCAGUCCACAACAGAGGAUUGAGCAUCA
B12: chr1:90180419:90180420:+_ENSG00000171488_ENST00000370454|hu_mus|FALSE|FALSE (ssRNA)
RNA: GGGAGUUCUACAGUCCGACGAUCAGCCCGGCAGUCUCCCAGCUCGGGAGGGAGGACUUCAAAGUGAUUGCCUUUGAUGUCUAAGUAGGAAAGAAAUAGUAGAUUUCCAAUUUUUGGUGAAAGUACGGAGAGGCUGUUUUUCCCCAACAGAGGAUUGAGCAUCA
B13: chr4:144460044:144460045:+_ENSG00000153147_ENST00000283131|hu_mus|hu_hu_hu_mus_False|1_48 (ssRNA)
RNA: GGGAGUUCUACAGUCCGACGAUCACGGUCCAUAGCCUGAAGAUCAACUUGCGGAUUCCAAUCUGAGUCAUAUAAAAUGACUACAUCAGCAGUCGCAAGAUUGAUGCCCAGACCACCAGCACGUGUGCUUAGCAUAAAAACAAACAACAGAGGAUUGAGCAUCA
B14: chr1:244855233:244855234:+_ENSG00000121644_ENST00000302550|hu_mus|hu_hu_hu_mus_True|28_78 (ssRNA)
RNA: GGGAGUUCUACAGUCCGACGAUCCAUCAGAUGGUAGGCGUUGCCCUUAUACUCUUUUCCCAGUUCUUCUACAAUUUUCUCUAUAUCAUCUUCUAGAAAGUCCGUACUCCCUAAAACAACAGCUUCUUUAAAUUUAAAUGUUUCCAACAGAGGAUUGAGCAUCA
B15: 15614295_15614415_1460_CDS_ENSG00000151779_ENST00000281513|human|control|control (ssRNA)
RNA: GGGAGUUCUACAGUCCGACGAUCUUCAGUCACCAAGUAAAGGCCCUGUUUUAUAUAACCAAAGUAGCGAGCCUUGGCAGAUAUUUCAUAAUCAGAAUCAGAAUCCUCUUCUCCUUCAUCUUCUUCUCCAGCUCUAGUCUCCAACAACAGAGGAUUGAGCAUCA
B16: chr5:61681977:61681978:+_ENSG00000068796_ENST00000381103|hu_mus|FALSE|FALSE (ssRNA)
RNA: GGGAGUUCUACAGUCCGACGAUCCACUGUCACAGACUUUAGUUCCGUUCAAUUGAUAUGGCACAUCCUGCAAAAUUAACUAGUCACACACAAAAAAAUGUCUCAAAUACAGUAAAAAUGUACACACAGUAAAGGUAAUUUACACAACAGAGGAUUGAGCAUCA
B17: chr13:43497316:43497317:+_ENSMUSG00000063200_ENSMUST00000071926|mus_mus|motif|central (ssRNA)
RNA: GGGAGUUCUACAGUCCGACGAUCCAAACAAAAUAUGUUUAUGAUUUUUAUAAUGAUCCGUUACAAUGAUUUAUCAGUGACGGAAUUUUGAGAAAUGAACCCUCUCUGCACCCAGUAAUCUUAAACUAUGCAUGCAAAAUGCAGCAACAGAGGAUUGAGCAUCA
B18: chr3:179287964:179287965:+_ENSG00000136518_ENST00000429709|hu_mus|FALSE|FALSE (ssRNA)
RNA: GGGAGUUCUACAGUCCGACGAUCCUUGAGUGGUGAGAUGGCCUCCAUGUUCUCCCUGGGCACGCGGAGGGCAUUGGUGUCUAUGUAGUAGGUGGGCCCGCCCUGCUUGCCUUUGUCACCAUCAAUCUCCAUCAUUGUACUUCCCAACAGAGGAUUGAGCAUCA
B19: chr7:135612270:135612271:-_ENSG00000105887_ENST00000393085|hu_mus|hu_hu_hu_mus_False|1_38 (ssRNA)
RNA: GGGAGUUCUACAGUCCGACGAUCGUUUUUUUCUGAGAUGUUAAAUAGUACUUCAGUGGAAAACAAAACUUAACCUUUUAUUAAUGCGUGUUGUACCAGAAAGCAAAAUUUUAGCUUCAUUUAUUCAAAAAUAUUAAGAACAUUCAACAGAGGAUUGAGCAUCA
B20: chr4:17845017:17845018:+_ENSG00000109805_ENST00000514176|hu_mus|hu_hu_hu_mus_False|1_48 (ssRNA)
RNA: GGGAGUUCUACAGUCCGACGAUCGCUCUCUUAACUUGUAUCUUCAUUAAGGAACUCUGCAAGGUUAAGUUUACUUUUCUGUAGCGCGCGGUUUUGGGCUCGUCUGGGUAAUCUCAUCUUCAUUUCUGAUGGUGGUUUGGAACUCAACAGAGGAUUGAGCAUCA
B21: chr11:18536319:18536320:-_ENSG00000074319_ENST00000251968|perfect_dup|FALSE|FALSE (ssRNA)
RNA: GGGAGUUCUACAGUCCGACGAUCUAGGUAGAUUUUCCCAUUUGCAUCCACAUGCUUUCCUGUUUUAAUAGUCAUUGAACUAGUAGGCUUAACAAAACAGAUAGGGGGGUUAUAUGGGUAUGUGUCCAGCAGCCACAGGCAUAUCAACAGAGGAUUGAGCAUCA
B22: chr1:220276048:220276049:+_ENSG00000067704_ENST00000302637|hu_hu|hu_hu_hu_mus_True|1_78 (ssRNA)
RNA: GGGAGUUCUACAGUCCGACGAUCGCAAAUUGCCUGGUUGGCGGGAAUUGUCCAAGGUUGUGUGGUCCAAACUAAAACGCUAACAGGGGAUGAGGCAUCUGUAAGAGACUCCAACUUCGGAGGAGGUCUCAGGAGGGGAAAUUUCAACAGAGGAUUGAGCAUCA

These binders were tested against T1, UNK ZnF1-3 (human, UniProt Q9C0B0 31-174) (assay: nsRBNS (natural sequence RNA bind-n-seq); RBNS binding buffer (assumed for nsRBNS): 25 mM Tris pH 7.5, 150 mM KCl, 3 mM MgCl2, 0.01% Triton X-100, 500 ug/ml BSA, 20 U/ml SUPERase-In, 4 C; UNK is unkempt and MSI1 is Musashi-1; names of the RNAs are library labels; protein concentration not given here; high values mean tight binding).
T1 sequence: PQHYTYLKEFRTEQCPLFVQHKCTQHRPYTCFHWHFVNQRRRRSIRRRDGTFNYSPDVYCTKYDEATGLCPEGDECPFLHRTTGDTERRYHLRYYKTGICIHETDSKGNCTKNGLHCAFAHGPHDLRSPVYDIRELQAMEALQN

Binder | binding signal [enrichment R]
B1 | 1.67
B2 | 0.665
B3 | 0.704
B4 | 0.271
B5 | 1.41
B6 | 2.07
B7 | 0.78
B8 | 0.26
B9 | 0.481
B10 | 0.635
B11 | 0.744
B12 | 1.97
B13 | 0.636
B14 | 1.27
B15 | 1.16
B16 | 1.38
B17 | 1.03
B18 | 0.675
B19 | 1.39
B20 | 0.405
B21 | 0.683
B22 | 1.98
